According to PubChem BioAssay AID2147 (National Center for Advancing Translational Sciences (NCATS), 2009):
About 3,600 (1.6%) of roughly 230,000 compounds were called active. Inconclusive means that the source gave no clear call. Such entries were picked first, then a sample of the others. The call rests on the fitted dose curve; in most records, active means well fitted inhibition curve with a large enough effect (not every such curve was filed as active); inconclusive means small, poorly fitted or top-dose-only effect, or another doubt; inactive means no such curve, though single readings can be large or run the other way. A potency beside an inconclusive call is a rough fit, not a confirmed value.

biological target: Lysine-specific demethylase 4E (Homo sapiens) (UniProt B2RXH2); assay: qHTS Assay for Inhibitors of Human Jumonji Domain Containing 2E (JMJD2E); settings: JMJD2E catalytic domain, FDH-coupled NADH fluorescence (FDH is formaldehyde dehydrogenase); series mostly up to 57.1 µM; activity change, negative = inhibition: at the top concentration
Chain of UniProt B2RXH2 (B2RXH2 whole entry, looked up, the tested form may be a part): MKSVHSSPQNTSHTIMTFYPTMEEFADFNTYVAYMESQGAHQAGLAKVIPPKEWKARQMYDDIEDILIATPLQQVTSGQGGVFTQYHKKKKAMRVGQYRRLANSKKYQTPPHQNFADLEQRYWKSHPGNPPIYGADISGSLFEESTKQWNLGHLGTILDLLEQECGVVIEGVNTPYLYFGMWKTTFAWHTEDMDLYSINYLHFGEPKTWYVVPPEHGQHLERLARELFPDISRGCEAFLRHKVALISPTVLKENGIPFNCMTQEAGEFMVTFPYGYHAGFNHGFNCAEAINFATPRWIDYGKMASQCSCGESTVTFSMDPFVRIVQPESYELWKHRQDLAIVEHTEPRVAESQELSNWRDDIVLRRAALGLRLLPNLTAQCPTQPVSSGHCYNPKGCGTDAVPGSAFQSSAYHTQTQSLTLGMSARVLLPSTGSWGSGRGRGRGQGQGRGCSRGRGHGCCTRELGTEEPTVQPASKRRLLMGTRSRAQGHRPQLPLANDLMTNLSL
Further: nearly all actives have a fitted effect of over 50% in size.
Potency means the concentration at half of the fitted maximal effect; tags describe the fitted curve by direction and shape.
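Wherever activity change, negative = inhibition is given: 0% = wells with enzyme and -100% = buffer wells without enzyme.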

Row | SMILES | activity change, negative = inhibition | Potency
1 | CCCOC(=O)c1c(NC(=O)CCCn2nc([N+](=O)[O-])cc2C)sc(C(=O)OC)c1C | inactive: -6.29% | 
2 | Cc1ccc(NCc2nnc(SCC(=O)Nc3ccccc3)n2CC2CCCO2)c(C)c1 (configuration not stated) | inactive: 3.74% | 
3 | COc1ccc2[nH]c(=O)c(CN(Cc3ccccc3)C(=S)NCC3CCCO3)cc2c1 (configuration not stated) |  | inconclusive: 28.2 µM [inhibitor, partial curve]
4 | N#Cc1ccc(-c2csc(NC(=O)c3ccc(N4C(=O)CCC4=O)cc3)n2)cc1 |  | inconclusive: 6.31 µM [inhibitor, single point]
5 | CC(=O)Cc1nsc(NC(=O)c2ccc(-c3cc(Cl)ccc3Cl)o2)n1 |  | inconclusive: 20 µM [inhibitor, partial curve]
6 | COc1ccccc1CCn1cnc2c3cc(C)ccc3n(C)c2c1=O |  | inconclusive: 1.78 µM [inhibitor, partial curve]
7 | CCN(Cc1ccccc1)C(=O)CSc1nc(C)cc(C)c1C#N | inactive: 4.4% | 
8 | COC(=O)c1sc2ncccc2c1OCc1cccc(Cl)c1 |  | inconclusive: 25.1 µM [inhibitor, partial curve]
9 | COC(=O)c1cn(NC(=O)COc2ccc(Cl)cc2)c(=O)c2ccccc12 |  | inconclusive: 17.8 µM [inhibitor, partial curve]
10 | CCN1c2ccc(S(=O)(=O)N3CCOCC3)cc2N(Cc2ccc(OC)cc2)C1C (configuration not stated) |  | inconclusive: 39.8 µM [inhibitor, single point]
11 | CCOC(=O)C1(CCOC)CCN(Cc2ccncc2)CC1 |  | inconclusive: 35.5 µM [inhibitor, single point]
12 | Oc1cc(O)cc(/C=C/c2ccc(O)c(O)c2)c1 |  | inconclusive: 22.4 µM [inhibitor, partial curve]
13 | O=C(/C=C/c1cccs1)N1CCN(c2ccc(O)cc2)CC1 |  | inconclusive: 39.8 µM [inhibitor, single point]
14 | Cn1c(SCC(=O)NNC(=O)Nc2ccccc2)nnc1-c1ccccc1 | inactive: 12.6% | 
15 | Cc1c(/C(O)=C2\C(=O)C(=O)N(CCCN(C)C)C2c2ccccc2)cnn1-c1ccccc1 (configuration not stated) | inactive: -8.5% | 
16 | N#CCc1c(C#N)c(N)nc(N2CCCC(O)C2)c1C#N (configuration not stated) |  | inconclusive: 28.2 µM [inhibitor, partial curve]
17 | N#Cc1ccc(C(=O)Nc2nnc(-c3ccccn3)o2)cc1 |  | inconclusive: 8.91 µM [inhibitor, single point]
18 | NC(=S)NNc1ccnc2cc(Cl)ccc12 | inactive: -17.7% | 
19 | O=C1N=C(N2CCOCC2)SC1=C1CCCCC1 | inactive: 12.5% | 
20 | O=C(COC(=O)c1ccc2c(=O)n3c(nc2c1)CCC3)NC1CCS(=O)(=O)C1 (configuration not stated) |  | inconclusive: 25.1 µM [inhibitor, partial curve]
21 | Cc1cccc(Cn2cnc3c(nnn3Cc3ccc(Cl)cc3)c2=O)c1 | inactive: 16.9% | 
22 | COc1ccc(-c2cc(=O)oc3cc(OCC(C)=O)ccc23)cc1 |  | inconclusive: 35.5 µM [inhibitor, single point]
23 | N#Cc1ccc(-c2ccco2)nc1SCc1ccccc1 |  | inconclusive: 25.1 µM [inhibitor, partial curve]
24 | CCCCCCOC(=O)c1ccccc1NC(=O)/C=C/C(=O)O |  | inconclusive: 28.2 µM [inhibitor, partial curve]

Row | SMILES | activity change, negative = inhibition | Potency
25 | CC(C)(S)[C@H](N)C(=O)O | inactive: -13.4% | 
26 | CCOC(=O)c1sc2nccc(N(C)C)c2c1N=CNOCc1c(F)cccc1Cl |  | inconclusive: 28.2 µM [inhibitor, partial curve]
27 | CC(=O)Nc1ccc(S(=O)(=O)c2c(N)n(CCN3CCOCC3)c3nc4ccccc4nc23)cc1 |  | inconclusive: 28.2 µM [inhibitor, partial curve]
28 | COc1ccc(-c2ccc(-c3noc(C)n3)c(OC)n2)cc1 |  | inconclusive: 28.2 µM [inhibitor, partial curve]
29 | COc1ccccc1N1CCN(C2CCN(C(=O)COc3ccccc3)CC2)CC1 |  | inconclusive: 35.5 µM [inhibitor, single point]
30 | Cc1ccc(O)c(C=Nc2ccc3[nH]ncc3c2)c1 |  | inconclusive: 31.6 µM [inhibitor, partial curve]
31 | COC(=O)c1c(C#N)c(N)nc2c1CCCC2 |  | inconclusive: 25.1 µM [inhibitor, partial curve]
32 | CN(C)CCCNC(=O)/C(=C\c1ccc(-c2ccc(Br)cc2)o1)NC(=O)c1ccccc1 |  | inconclusive: 31.6 µM [inhibitor, single point]
33 | O=C(Cc1cccs1)Nc1nnc(SCC(=O)NC2CCCCC2)s1 | inactive: 1.57% | 
34 | COC(=O)c1cc(NC(=O)c2cc(C(C)(C)C)nn2Cc2ccc(F)cc2)ccc1N1CCOCC1 |  | inconclusive: 35.5 µM [inhibitor, single point]
35 | CCOC(=O)c1cn(CC(=O)Nc2ccc(C)cc2)nn1 | inactive: 0.889% | 
36 | Cc1nn(-c2ccccc2)c(C)c1C(=O)Nc1nnc(-c2ccco2)o1 |  | inconclusive: 35.5 µM [inhibitor, single point]
37 | CCCSC1=N/C(=C\c2ccc([N+](=O)[O-])o2)C(=O)S1 |  | inconclusive: 25.1 µM [inhibitor, single point]
38 | CCN(CC)c1ccc(C(=O)N/N=C/c2ccccc2OC(F)F)cc1 |  | inconclusive: 28.2 µM [inhibitor, single point]
39 | COc1ccc(NC(=S)N/N=C/c2cccn2Cc2ccc(F)cc2)cc1 | inactive: -20.2% | 
40 | O=C1CCCc2oc3ccc(NS(=O)(=O)c4cccc5cccnc45)cc3c21 | inactive: -1.06% | 
41 | CCC(C)(C)n1nnnc1C(c1cc2cc3c(cc2[nH]c1=O)OCO3)N1CCN(C)CC1 (configuration not stated) |  | inconclusive: 28.2 µM [inhibitor, partial curve]
42 | COc1ccc(CC2(CO)CCN(Cc3ccncc3)CC2)cc1 |  | inconclusive: 31.6 µM [inhibitor, single point]
43 | COC/C=C/C1=CC2=CC(=O)C(C)(OC(=O)CCC(=O)OC)C(=O)C2=CO1 (configuration not stated) |  | inconclusive: 28.2 µM [inhibitor, single point]
44 | COc1ccc(C)cc1-n1c(N)c(C#N)c(C#N)c1-c1ccc(OC)c(OC)c1OC |  | inconclusive: 39.8 µM [inhibitor, single point]
45 | N#Cc1nc(-c2ccccc2)oc1NCC1CCCO1 (configuration not stated) |  | inconclusive: 31.6 µM [inhibitor, partial curve]
46 | Brc1c(CSc2nncn2-c2ccccc2)nc2ncccn12 |  | inconclusive: 35.5 µM [inhibitor, partial curve]
47 | O=C(NCC1CCCO1)C(c1cccs1)N(Cc1ccccc1)C(=O)c1ccc(-c2ccccc2)[nH]1 (configuration not stated) |  | inconclusive: 15.8 µM [inhibitor, partial curve, poor fit]
48 | Cn1c(=O)cc(SCC(=O)NCC2CCCO2)c2ccccc21 (configuration not stated) |  | inconclusive: 39.8 µM [inhibitor, single point]

Row | SMILES | activity change, negative = inhibition | Potency
49 | CCNc1nc(NCC)nc(N/N=C/c2ccc([N+](=O)[O-])o2)n1 | inactive: 1.16% | 
50 | CC1(C)Cc2c(c(N3CCCC3)nc3sc4c(N5CCNCC5)ncnc4c23)CO1 |  | inconclusive: 25.1 µM [inhibitor, single point]
51 | Cc1ccc(C)c(C(=O)CSc2nnnn2C(C)C)c1 | inactive: -4.18% | 
52 | O=C(Cc1ccccc1)NN1C(=O)/C(=C/c2ccccc2C(=O)O)SC1=S | inactive: 5.16% | 
53 | O=C(Nc1nc(-c2cccs2)c(-c2cccs2)s1)C1CCCC1 |  | inconclusive: 35.5 µM [inhibitor, single point]
54 | CC(C(=O)Nc1cccc([N+](=O)[O-])c1)N1CCN(C/C=C/c2ccccc2)CC1 (configuration not stated) |  | inconclusive: 39.8 µM [inhibitor, single point]
55 | Cc1ccc(C2=N/C(=C/N3CCOCC3)C(=O)O2)cc1 | inactive: -3.92% | 
56 | Cc1cc(C)c2c(NC(=O)CCl)nn(C)c2n1 |  | inconclusive: 31.6 µM [inhibitor, partial curve]
57 | COc1ccc(CC2(C)OC(c3ccccc3)=NN2C(C)=O)cc1 (configuration not stated) |  | inconclusive: 31.6 µM [inhibitor, partial curve]
58 | O=C(c1ccco1)N1CCN(C2CCCC2)CC1 |  | inconclusive: 28.2 µM [inhibitor, single point]
59 | COCCCn1c(SCC(=O)Nc2cccc(C(=O)OC)c2)nnc1-c1ccncc1 | inactive: 3.87% | 
60 | CCN(CC)C(=O)NC1CC2CCCC(C1)N2Cc1ccccc1 (configuration not stated) | inactive: 9.39% | 
61 | CC(C)Cc1cc(-c2ccco2)c(C#N)c(N)n1 |  | inconclusive: 15.8 µM [inhibitor, partial curve]
62 | COc1ccc(N=C2C(=O)N3c4c(cccc42)C(C)=CC3(C)C)cc1 | inactive: -16.7% | 
63 | CCNc1nc(Oc2ccc(C#N)cc2)cc(C(F)(F)F)n1 |  | inconclusive: 35.5 µM [inhibitor, single point]
64 | O=S(=O)(NCC(O)COCc1ccco1)c1cccs1 (configuration not stated) | inactive: 1.22% | 
65 | CCOc1ccc2cc(S(=O)(=O)n3ccnc3C)ccc2c1 |  | inconclusive: 39.8 µM [inhibitor, single point]
66 | COc1ccc(NC(=O)c2ccc3c(=O)n(-c4ccc(OC)cc4OC)c(=S)[nH]c3c2)c(OC)c1 |  | inconclusive: 35.5 µM [inhibitor, single point]
67 | Cc1ccc(C(=O)N2CC(C)OC(C)C2)c(Cl)c1 (configuration not stated) | inactive: -1.64% | 
68 | COc1ccccc1-n1c(N)c(C(N)=O)sc1=S | inactive: 3.33% | 
69 | CCOC(=O)C1CCCN(C/C=C/c2ccccc2[N+](=O)[O-])C1 (configuration not stated) |  | inconclusive: 28.2 µM [inhibitor, single point]
70 | Cc1cc(C(=O)N/N=C/c2c(C)nn(-c3ccccc3)c2C)c(C)o1 | inactive: -5.31% | 
71 | Cc1cc(C=O)c2c(c1)C=CC1(Oc3ccccc3C(=O)N1C)O2 (configuration not stated) |  | inconclusive: 31.6 µM [inhibitor, single point]
72 | O=C(CNC(=O)c1ccccc1)OCc1cc(=O)n2cc(Br)ccc2n1 |  | inconclusive: 31.6 µM [inhibitor, partial curve]
